Data from the RNAGym collection of RNA variant scans (doi:10.1093/nar/gkz1192).
Read counts are not given, so values of variants with three or more changes are uncertain.

B1: CPEB3 Ribozyme (parent)
chain: UAACAGGGGGCCACAGCAGAAGCGUUCACGUCGCAGCCCCUGUCAGAUUCUGGUGAAUCUGCGAAUUCUGCUGUAUAUCUC

Variants of: B1
Assay: self-cleavage, relative activity (ratio to wild type); higher = more cleavage; in vitro, sequencing
Outline: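 Relative activity was defined as the cleaved/total read fraction for a variant divided by the same fraction for the unmutated ribozyme. CPEB3 self-cleaving ribozyme libraries were made by rounds of error-prone PCR, barcoded, and transcribed in vitro with T7 RNA polymerase for 5 hours at 37°C, and cleavage ran through transcription plus a 15 min DNase I step before EDTA. Illumina sequencing of template-switched reverse transcripts gave the reads, and DNA sequencing mapped the barcodes. Averages come from three batches, using variants with at least 5 reads.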
UAACAGGGGGCCACAGCAGAAGCGCUCACGUCGCAGCCCCUGUCAGAUUCUGGUGAAUCUGCGAAUUCUGGUGUAUACCUC gave a self-cleavage of 0.12.
UAACAGGGGGCCACAGCAGAAGCGCCCACGUCGCAGCCCCUGUCAGAUUCUGGUGAAACUGCGAAUUCUGCUGUAUAUCUC gave a self-cleavage of 0.1.
UAACAGGGGGCCACAGCAGAAGCGCUCACGUCGCAGCCCCUGUAUGAUUCUGGUGAAUCUGCGAAUCCUGCUGUAUAUCUC gave a self-cleavage of 0.08.
Work on UAACAGGGGGCCACAGCAGAAGCGCUCACGUUGCAGCCCCGGUCAGAUACUGGUGAAUCUACGAAUUCUGCUGUAAAUCUC yielded a self-cleavage of 0.05.
Work on UAACAGGGGGCCACAGCAGAAGCGCCCACGUCGCAGCCCCUGUCAGAUUCUGGUGAAUCUGCGAAUUCAGCAGUAUACCUC yielded a self-cleavage of 0.07.
Variant UAACAGGGGGCCACAGCAGAAGCGCUCACGUCGCAGCUCCUGUCGGAUUCUGGUGAAUCUGCGAAUUCUGCUGUAUAUCUC has a self-cleavage of 0.58.
UAACAGGGGGCCACAGCAGAAGCGCACACGUCGCAGCCCCAGUCAGAUUCUGGUGAAUCUGCGAAUUCUGCUGUAUAUCUC gave a self-cleavage of 0.36.
Variant UAACAGGGGGCCACAGCAGAAGCGCUCACGUCGCAGCCUCUGUCGGAUUCUGGUGUAUCUGCGAAUUCUGCUGUAUACCUC has a self-cleavage of 0.14.
UAACAGGGGGCCACAGCAGAAGCGCUCAUGUCGCGGCCCCUGACAGAUUCUGGUGAAUCUGCGGAUUCUGCUGUUGAUCUC showed a self-cleavage of 0.12.
UAACAGGGGGCCACAGCAGAAGCGCCCGCGUCGCAGCCCCUGUCUGACUCUGGUGAAUCUGCGCAUUCUGCUGUAUAUCUC showed a self-cleavage of 0.06.
UAACAGGGGGCCACAGCAGAAGCGCUCACGUUGCAGCCCCUGUAAGAUUCUGGUGAAUCUGCUAAUUCUGCUGUAUAUCUC gave a self-cleavage of 0.13.
Variant UAACAGGGGGCCACAGCAGAAGCGCUCACAUCGCAGCCCCUGUCAGAUUCAGGUGAAUCUGCGAAUUCCGCUGUAUAUCUC has a self-cleavage of 0.15.
Work on UAACAGGGGGCCACAGCAGAAGCGCUCACGUCGCAGCCCCUGUCAGAUUCUGAUGAAUCUGCGAAUUCUGCUGUAUAUCCC yielded a self-cleavage of 0.27.
Work on UAACAGGGGGCCACAGCAGAAGCGCACACGUCGCAGCCCCUGUCAGAUUCUGGUGAGUCUGCGAAUUCUGCCGUAUAUCUC yielded a self-cleavage of 0.07.
UAACAGGGGGCCACAGCAGAAGCGCCCACGUCGCAGCCCCUGUCGGAUUCUGGUGGAUCUGCGAAUUCUGCUGUAUAUCCC showed a self-cleavage of 0.1.
In the case of UAACAGGGGGCCACAGCAGAAGCGCCCACGGCGCAGCCCCUGACAGAUUCUGGUGAAUCCGCGAAUUCUGCUGUAUAUCUC, the self-cleavage is reported as 0.1.
Work on UAACAGGGGGCCACAGCAGAAGCGCACACGUCGCAGCCCCUGCCUGAUUCUGGCGAAUCUGCGAAUUCUGCUGUAUAUCUC yielded a self-cleavage of 0.08.
For UAACAGGGGGCCACAGCAGAAGCGCUCACCUCGCAGCCCCGGUCAGAUUCUGGUGAAUCUGCGAAUUCUGCUGUAUAUCUC, the self-cleavage was 0.17.
With UAACAGGGGGCCACAGCAGAAGCGCUCACGUCGCACCCGCUGUCAGAUUCUGGUGAAUCUGGGAAUUCCGCUGUAUAUCUC the self-cleavage was 0.13.
For UAACAGGGGGCCACAGCAGAAGCGCUCACGUCGCAGCACCUGUCAGAUUCUGGAGAAUCUGCGAAUUCUGCGGUAUAUCCC, the self-cleavage was 0.21.
With UAACAGGGGGCCACAGCAGAAGCGCACACGUCGCAGCCCCUGUCAGAUCCUGGUGAAUCUGCGAAUUCUGCUGUAUAUCUC the self-cleavage was 0.26.
With UAACAGGGGGCCACAGCAGAAGCGCUCACGUCGCAGCCCCUGUGAGAUUCCGGUGAAUCUGCGGAUUCUGCUGUAUAUCUC the self-cleavage was 0.15.
Variant UAACAGGGGGCCACAGCAGAAGCGCCCACGCCGCAGCCCCUGUCAGAUUCUGGUGAAUCUGCGAUUACUGCUGUAUAUCUC has a self-cleavage of 0.12.
UAACAGGGGGCCACAGCAGAAGCGCUCACGUCGCAGCCCCUGUCAGAUUCUUGUGAAUCUGCGAAUCCUGCUGCAUAUCUC gave a self-cleavage of 0.15.
In the case of UAACAGGGGGCCACAGCAGAAGCGCUCACGUCGCAGACCCUGUCAGGUCCUGGUGAAUCUGCGAAUUCUGCUGUACAUCUC, the self-cleavage is reported as 0.14.
UAACAGGGGGCCACAGCAGAAGCGCUCAAGUCGCUGCCCCUGUCGGAUUCUGGUGAGUCUGCGAAUUCUGCUGUAUAUCUU showed a self-cleavage of 0.17.
Variant UAACAGGGGGCCACAGCAGAAGCGCACACGUCACAGCCCCUGUCAGAUUCUGGUGAAUCUGCGAAUUCUGCUGUAUAUCUC has a self-cleavage of 0.59.
With UAACAGGGGGCCACAGCAGAAGCGCUCAUGUCGCAGCCCCUGUCAGAUUCUGGUGAAUCUGCGAAUUCUGCUGUAUAUCAC the self-cleavage was 0.04.
In the case of UAACAGGGGGCCACAGCAGAAGCGCUCACGUCGCAGACUCUGUCAGACUCUGGUGAGUCUGCGAAUUCUGCUGUAUAUCUC, the self-cleavage is reported as 0.13.
Work on UAACAGGGGGCCACAGCAGAAGCGCUCACCUCGCAGCCCCUGUAAGAUUCUGGCGAAUCUGCGAAUUCUGCUGUAUGUCUC yielded a self-cleavage of 0.03.
With UAACAGGGGGCCACAGCAGAAGCGCUCACGUCGCAGCCACUGUCAGAUUCUGGUGAAUCUGCGAAUUCUGCUGUAUAUCAC the self-cleavage was 0.23.
In the case of UAACAGGGGGCCACAGCAGAAGCGCUCACGUCGCAGCCCCUGUCAGAUUCUAGUGAAUCUGCGGAUUCUGCUGUAUAUCUC, the self-cleavage is reported as 0.51.
In the case of UAACAGGGGGCCACAGCAGAAGCGCUCACGUCGCAGCCCCUGUCAGAUUAUGGUGAAUCUGCGAACUCUGCUGUAUAUCUC, the self-cleavage is reported as 0.26.
With UAACAGGGGGCCACAGCAGAAGCGCUCACGUCACAGCCCCUGUCAGAUUCUGGUGAAUCUGCGAAUUCCGCUGUACAUCUC the self-cleavage was 0.07.
